The supplement of paper PMC12217912
This is one part of the list. The full chains were built here from the parent and the listed change. Inactive controls read about 0.05.

B1: TEV protease; numbered along this chain (parent)
chain: MGESLFKGPRDYNPISSSICHLTNESDGHTTSLYGIGFGPFIITNKHLFRRNNGTLVVQSLHGVFKVKDTTTLQQHLVDGRDMIIIRMPKDFPPFPQKLKFREPQREERICLVTTNFQTKSMSSMVSDTSCTFPSGDGIFWKHWIQTKDGQCGSPLVSTRDGFIVGIHSASNFTNTNNYFTSVPKNFMELLTNQEAQQWVSGWRLNADSVLWGGHKVFMVKPEEPFQPVKEATQL

Variants of: B1
Test: raw area under fraction-flipped curve 0-4 h after induction (AUC4h, not background-subtracted), DNA-recorder readout of cleavage of the substrate (dimensionless); higher = more cleavage of the substrate by the protease variant
Conditions: temperature: 34 °C; time window: 0-4 h after rhamnose induction
Procedure: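 In vivo DNA recorder in E. coli TOP10(DE3) ΔrhaA at 34 °C. Each TEVp single-site mutant (parent TEVp 0) is paired with a single-site variant of the 7-mer TEVs (canonical ENLYFQ|S). The substrate sits between flexible linkers in a Bxb1-sfGFP-TEVs-SsrA fusion, so cleavage stabilises Bxb1 and speeds flipping of a recombination array, read by NGS. The value is the raw area under the fraction-flipped curve over 0-4 h after rhamnose induction (AUC4h), with ≥20 reads per time point. It is not background-subtracted; inactive controls average about 0.047.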
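Further: Bxb1 expression induced with 0.2% (w/v) L-rhamnose at OD600 near 0.5, cultures sampled hourly, flipped fraction per protease–substrate barcode pair counted by paired-end Illumina sequencing.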

Variant	area with substrate ENLYFQA	area with substrate ENLYFQC	area with substrate ENLYFQD	area with substrate ENLYFQF	area with substrate ENLYFQG	area with substrate ENLYFQH	area with substrate ENLYFQI	area with substrate ENLYFQK	area with substrate ENLYFQL	area with substrate ENLYFQM	area with substrate ENLYFQN	area with substrate ENLYFQR	area with substrate ENLYFQS	area with substrate ENLYFQT	area with substrate ENLYFQV	area with substrate ENLYFQW	area with substrate ENLYFQY	area with substrate ENLYFQE	area with substrate ENLYFQP	area with substrate ENLYFQQ
F140R	0.0288	0.0612	0.0584	0.0514	0.0635	0.0576	0.0618	0.0595	0.0588	0.061	0.0563	0.0689	0.0623	0.0495	0.0596	0.0614	0.0845	–	–	–
G80N	0.0865	0.109	0.0923	–	–	–	0.0696	0.0652	0.0478	0.103	0.0617	0.0544	0.117	0.0689	0.0587	0.0773	0.0716	0.0708	0.0367	–
G80P	0.09	0.0797	–	–	0.144	–	0.0741	–	0.0599	–	–	–	0.0808	–	–	–	–	–	–	–
G80T	0.0928	0.0907	0.0729	0.0742	0.0598	–	0.0584	–	0.0601	0.078	0.088	0.047	0.112	0.044	0.0641	0.0847	0.0756	–	0.0613	–
G80K	0.106	0.119	0.0651	–	0.1	–	0.0542	0.0638	0.0727	0.0882	0.0677	–	0.103	0.0723	0.0711	0.0832	–	0.0562	–	0.0744
M88W	0.0865	0.107	0.0466	–	–	0.0644	0.0428	0.0537	–	0.0537	0.075	0.0494	0.0834	0.0578	0.0345	0.0483	0.0559	–	0.043	–
M88Y	0.0782	0.0753	0.0627	–	–	0.0636	–	0.061	0.0554	–	0.0721	0.0403	0.0629	–	–	0.062	–	–	–	–
M88Q	0.118	0.118	–	0.0781	0.106	–	0.0618	–	–	–	0.0834	0.0592	0.103	–	0.0719	–	–	0.081	–	–
M88E	0.0689	–	–	–	–	–	–	–	0.0532	–	0.0527	0.0548	0.0642	0.0484	0.06	0.0342	–	–	–	–
Q105W	0.0892	0.119	–	0.0635	0.0832	0.0752	0.0538	0.0654	0.0629	0.0714	0.0701	0.0531	0.0972	0.0595	0.0581	0.0895	–	–	0.0668	0.0797
E103G	0.0782	0.105	0.0674	–	–	0.0777	0.0668	0.0662	0.0644	0.0865	0.0825	0.0565	0.0928	0.0616	0.0842	0.0823	0.0681	–	0.0452	–
P104T	0.0565	0.0597	–	–	0.0426	0.0297	0.049	–	0.033	–	0.0698	–	0.062	0.0534	0.053	0.0083	–	–	0.0632	–
P104D	0.0423	0.0529	–	0.0452	0.0265	0.0569	0.0438	0.0426	0.0429	0.0194	0.0423	0.0478	0.0498	0.0488	0.0497	0.0524	0.0415	–	0.0582	0.0485
P104M	0.0588	0.0616	0.048	–	–	–	0.0559	0.0416	0.0534	0.0511	0.0441	0.0553	0.0539	0.0524	0.033	0.051	0.0432	–	0.0375	0.0587
P104I	0.0655	–	0.0688	–	0.0665	–	0.0321	0.0459	0.0367	0.0563	0.0489	0.0586	0.0659	0.0523	0.0392	0.0534	0.0405	0.065	0.0546	0.0595
P104L	0.0596	–	0.0474	–	0.0752	–	0.041	0.0579	0.03	0.0531	0.0576	0.0557	0.0558	0.0536	0.0517	0.0553	0.0532	0.0667	–	–
P104W	0.0384	0.0511	0.0313	0.0511	–	0.0512	–	0.0483	0.0448	0.0491	0.0422	0.0502	0.0561	0.0473	–	0.0512	–	–	0.0431	–
P96N	0.0793	0.0855	–	0.0728	0.115	0.0936	0.0502	0.0603	–	0.0869	0.0792	–	0.103	0.0386	0.0738	0.065	0.0917	–	0.0612	–
P96K	0.0982	0.123	–	–	0.125	–	0.0452	0.0637	0.0815	0.1	0.0869	0.0644	0.104	–	–	0.0587	0.0886	–	–	–
P96M	0.104	–	–	–	0.081	–	–	0.0567	–	–	0.0564	0.0542	0.0962	0.0683	–	0.0602	0.071	–	0.0522	–
P96V	0.0933	0.103	0.0689	–	–	0.0878	0.0542	–	0.0544	0.0839	0.0759	0.0595	0.0975	0.0679	–	–	0.0812	–	0.0562	–
L112N	0.0747	0.0809	0.0583	0.0664	0.0796	0.055	0.0531	0.0561	0.0238	0.127	0.0595	0.0573	0.0801	0.0541	0.0588	0.0569	–	–	0.0584	0.0597
L112C	0.0855	0.0789	–	–	0.0787	0.055	–	0.0683	0.0616	0.0443	0.0628	0.0692	0.0831	0.0487	0.0676	–	0.0623	–	0.0435	–
L112Q	0.076	0.0645	0.0712	0.0678	–	–	–	0.0768	0.0602	0.0547	0.0562	0.0586	0.0786	0.0594	0.0752	0.0573	–	–	–	0.0492
L112W	0.0714	0.0768	0.0658	–	0.0844	0.0593	0.0564	–	0.0497	0.0683	0.0798	0.0583	0.0777	0.0441	0.0579	–	0.0432	0.0704	0.0572	–
